SMILES strings stand for the structures. Structures can show the parent of a compound that is named as a salt. The list shows a part of the results. Many values rest on one well or one pass, so single values are uncertain.
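Note: stationary (unshaken) cultures in 96-well plates, started at OD600 0.05 from mid-exponential cells, with compounds supplied from DMSO stocks.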

The assay has as its system Escherichia coli W3110. Briefly: planktonic growth (OD600) relative to untreated control; higher = more growth. To be noted: 10 µM; 20-24 h; 30 °C; TB.
Molecule `Cc1ccc(N(CC2=NCCN2)c2cccc(O)c2)cc1` [Phentolamine hydrochloride] returned a planktonic growth of 93%.
With `Cc1c(Cl)cccc1Nc1ccccc1C(=O)O` [Tolfenamic acid] the figure was 101%; with `CCCSc1ccc2[nH]c(NC(=O)OC)nc2c1` [Albendazole], 98%; with `CO[C@H]1/C=C/O[C@@]2(C)Oc3c(C)c(O)c4c(O)c(c(/C=N/N5CCN(C)CC5)c(O)c4c3C2=O)NC(=O)/C(C)=C\C=C\[C@H](C)[C@H](O)[C@@H](C)[C@@H](O)[C@@H](C)[C@H](OC(C)=O)[C@@H]1C` [Rifampicin], 28%.
Under `CC(=O)[C@@]12O[C@](C)(c3ccccc3)O[C@@H]1C[C@H]1[C@@H]3CCC4=CC(=O)CC[C@]4(C)[C@H]3CC[C@@]12C` [Algestone acetophenide] stands 104%; under `C[C@]12CCC(=O)C=C1CC[C@@H]1[C@@H]2C(=O)C[C@@]2(C)[C@H]1CC[C@]2(O)C(=O)CO` [Cortisone], 97%; under `COC(=O)[C@H](c1ccccc1Cl)N1CCc2sccc2C1` [Clopidogrel], 106%.
The molecule `COCCCC/C(=N\OCCN)c1ccc(C(F)(F)F)cc1` [Fluvoxamine maleate] had a planktonic growth of 92%.
Molecule `CN(C)[C@@H]1C(O)=C(C(N)=O)C(=O)[C@@]2(O)C(O)=C3C(=O)c4c(O)cccc4[C@@](C)(O)[C@H]3C[C@@H]12` [Tetracycline hydrochloride] gave a planktonic growth of 21%.
Under `C[C@H](N[C@@H](CCc1ccccc1)C(=O)O)C(=O)N1CCC[C@H]1C(=O)O` [Enalaprilat dihydrate] stands 107%; under `COc1ccc(CC(C)NCC(O)c2ccc(O)c(NC=O)c2)cc1` (centres undefined) [Formoterol fumarate], 101%; under `CCOC(=O)N1CCC(=C2c3ccc(Cl)cc3CCc3cccnc32)CC1` [Loratadine], 107%.
With `C1N2CN3CN1CN(C2)C3` [Methenamine] the figure was 93%; with `O=C1NCCN1c1ncc([N+](=O)[O-])s1` [Niridazole], 66%.
With `CCCCCN(C)CCC(O)(P(=O)(O)O)P(=O)(O)O` [Ibandronate sodium] the figure was 99%; with `C[C@@H](O)[C@H]1C(=O)N2C(C(=O)O)=C(SCCNC=N)C[C@H]12` [Imipenem], 18%.
Molecule `c1ccc2c(c1)CCCC2C1=NCCN1` (centres undefined) [Tetrahydrozoline hydrochloride] registered a planktonic growth of 97%.
With `CC(C)(C)C(=O)OCOC(=O)[C@@H]1N2C(=O)[C@@H](/N=C/N3CCCCCC3)[C@H]2SC1(C)C` [Pivmecillinam hydrochloride] the figure was 31%.
Under `CNc1ncnc2c1ncn2[C@@H]1O[C@H](CO)[C@@H](O)[C@H]1O` [N6-methyladenosine] stands 90%.
As for `OCC(O)CN1CCN(c2ccccc2)CC1` (racemic) [Dropropizine (R,S)], the planktonic growth stood at 100%.
`CS(=O)(=O)c1ccc([C@@H](O)[C@@H](CF)NC(=O)C(Cl)Cl)cc1` [Florfenicol] returned a planktonic growth of 38%.
As for `CCN(CC)CCCC(C)Nc1ccnc2cc(Cl)ccc12` (centres undefined) [Chloroquine diphosphate], the planktonic growth worked out at 93%.
`Nc1ccc(S(=O)(=O)NC(=O)c2ccccc2)cc1` [Sulfabenzamide] had a planktonic growth of 79%.
In the case of `C=C(CC)C(=O)c1ccc(OCC(=O)O)c(Cl)c1Cl` [Ethacrynic acid], the planktonic growth stood at 90%.
With `CCCc1ncc(C[n+]2ccccc2C)c(N)n1` [Amprolium hydrochloride], the planktonic growth was 110%.
Under `CC(C(=O)O)c1cccc(Oc2ccccc2)c1` (centres undefined) [Fenoprofen calcium salt dihydrate] stands 99%; under `Oc1ccc(C2CNCCc3c2cc(O)c(O)c3Cl)cc1` (centres undefined) [Fenoldopam], 80%.
Under `CC(=O)OCC(=O)NCCCOc1cccc(CN2CCCCC2)c1` [Roxatidine Acetate hydrochloride] stands 98%; under `CCn1cc(C(=O)O)c(=O)c2cc(F)c(N3CCNCC3)nc21` [Enoxacin], 27%; under `CCCCCCCCCCCCCCCC[N+](C)(C)CCN(Cc1ccc(OC)cc1)c1ncccn1` [Thonzonium bromide], 54%.
Under `CCN(CC)CCCC(C)Nc1c2ccc(Cl)cc2nc2ccc(OC)cc12` (centres undefined) [Quinacrine dihydrochloride hydrate] stands 112%.
`CC(=O)N1CCN(c2ccc(OCC3COC(Cn4ccnc4)(c4ccc(Cl)cc4Cl)O3)cc2)CC1` (centres undefined) [Ketoconazole] displayed a planktonic growth of 104%.
Under `CN(CCOc1ccc(NS(C)(=O)=O)cc1)CCc1ccc(NS(C)(=O)=O)cc1` [Dofetilide] stands 93%; under `C#C[C@]1(O)CC[C@H]2[C@@H]3CCc4cc(OC)ccc4[C@H]3CC[C@@]21C` [Ethynylestradiol 3-methyl ether], 100%.
With `CC(C)NCC(O)c1ccc(NS(C)(=O)=O)cc1` (centres undefined) [Sotalol hydrochloride] the figure was 108%; with `CCOC(=O)Nc1ccc2c(c1)N(C(=O)CCN1CCOCC1)c1ccccc1S2` [Moricizine hydrochloride], 93%.
In turn, `COC(=O)[C@H]1[C@H]2C[C@@H]3c4[nH]c5cc(OC)ccc5c4CCN3C[C@H]2C[C@@H](OC(=O)c2cc(OC)c(OC)c(OC)c2)[C@@H]1OC` [Reserpine] returned a planktonic growth of 102%.
Under `CNC(=C[N+](=O)[O-])NCCSCc1ccc(CN(C)C)o1` [Ranitidine hydrochloride] stands 111%; under `CC(C)C[C@H](NC(=O)[C@@H](O)[C@H](N)Cc1ccccc1)C(=O)O` [Ubenimex], 100%; under `C[C@]12C=CC(=O)C=C1CC[C@@H]1[C@@H]2[C@@H](O)C[C@@]2(C)[C@H]1CC[C@]2(O)C(=O)CO` [Prednisolone], 92%.
Under `O=c1[nH]cc(F)c(=O)[nH]1` [5-fluorouracil] stands 78%; under `CS(=O)(=O)c1ccc([C@@H](O)[C@@H](CO)NC(=O)C(Cl)Cl)cc1` [Thiamphenicol], 80%.
With `CC(C)Cc1ccc([C@H](C)C(=O)O)cc1` [S-(+)-ibuprofen] the figure was 92%.
The molecule `CC(=O)Oc1cc(C(F)(F)F)ccc1C(=O)O` [Triflusal] gave a planktonic growth of 106%.
With `C[C@@H](c1ncncc1F)[C@](O)(Cn1cncn1)c1ccc(F)cc1F` [Voriconazole] the figure was 98%.
Under `O=C(O)Cc1ccccc1Nc1c(Cl)cccc1Cl` [Diclofenac sodium] stands 95%; under `CN1CCN(CCCN2c3ccccc3Sc3ccc(S(=O)(=O)N(C)C)cc32)CC1` [Thioproperazine dimesylate], 94%; under `CC(=O)O[C@]1(C(C)=O)CC[C@H]2[C@@H]3C=C(C)C4=CC(=O)CC[C@@H]4[C@H]3CC[C@@]21C` [Nomegestrol acetate], 93%.
Under `NS(=O)(=O)c1cc2c(cc1Cl)N=C(CSCc1ccccc1)NS2(=O)=O` [Benzthiazide] stands 93%; under `O=C1C(CC[S+]([O-])c2ccccc2)C(=O)N(c2ccccc2)N1c1ccccc1` (centres undefined) [Sulfinpyrazone], 109%.
In turn, `Nc1ccc(S(=O)(=O)Nc2ncccn2)cc1` [Sulfadiazine] had a planktonic growth of 62%.
With `C#C[C@]1(OC(C)=O)CC[C@H]2[C@@H]3CCC4=C[C@@H](OC(C)=O)CC[C@@H]4[C@H]3CC[C@@]21C` [Ethynodiol diacetate] the figure was 95%; with `C#C[C@]1(O)CC[C@H]2[C@@H]3CCC4=CC(=O)CC[C@@H]4[C@H]3CC[C@@]21C` [Norethindrone], 89%; with `CO[C@@]1(NC(=O)C(C(=O)O)c2ccc(O)cc2)C(=O)N2C(C(=O)O)=C(CSc3nnnn3C)CO[C@@H]21` (some centres undefined) [Moxalactam disodium salt], 19%.
With `COC(=O)C1=C(C)NC(C)=C(C(=O)OC)C1c1ccccc1[N+](=O)[O-]` [Nifedipine] the figure was 93%.
As for `Cc1cc(NC(=O)C2=C(O)c3ccccc3S(=O)(=O)N2C)no1` [Isoxicam], the planktonic growth stood at 102%.
With `Cc1cc(C(C)(C)CC(C)(C)C)ccc1OCCOCC[N+](C)(C)Cc1ccccc1` [Methyl benzethonium chloride] the figure was 62%.
With `CN(C)CCCN1c2ccccc2CCc2ccc(Cl)cc21` [Clomipramine hydrochloride] the figure was 96%.
The molecule `CO[C@@]1(NC(=O)C2SC(=C(C(N)=O)C(=O)O)S2)C(=O)N2C(C(=O)O)=C(CSc3nnnn3C)CS[C@@H]21` (some centres undefined) [Cefotetan] returned a planktonic growth of 1%.
In turn, `CCN(CC)CCOC(=O)C1(c2ccc([N+](=O)[O-])cc2)CCCC1` [Nitrocaramiphen hydrochloride] registered a planktonic growth of 99%.
Turning to `Clc1ccccc1CN1CCc2sccc2C1` [Ticlopidine hydrochloride], the planktonic growth turned out to be 104%.
Under `Nc1ccc(O)c(C(=O)O)c1` [Mesalamine] stands 94%.
With `CC(c1cc2ccccc2s1)N(O)C(N)=O` (centres undefined) [Zileuton] the figure was 98%; with `CC(=O)Oc1cc(C(C)C)c(OCCN(C)C)cc1C` [Moxisylyte hydrochoride], 106%.
With `O=c1[nH]c(=O)n([C@H]2C[C@H](O)[C@@H](CO)O2)cc1F` [Floxuridine] the figure was 86%; with `CNNCc1ccc(C(=O)NC(C)C)cc1` [Procarbazine hydrochloride], 99%.
In turn, `C[N+]1(C)CCC(=C(c2ccccc2)c2ccccc2)CC1` [Diphemanil methylsulfate] registered a planktonic growth of 101%.
With `NS(=O)(=O)c1cc2c(cc1Cl)NCNS2(=O)=O` [Hydrochlorothiazide] the figure was 107%; with `CN(C)CCc1c[nH]c2ccc(C[C@H]3COC(=O)N3)cc12` [Zolmitriptan], 94%; with `CN(C)CCC=C1c2ccccc2C=Cc2ccccc21` [Cyclobenzaprine hydrochloride], 106%.
Under `CC(C)OC(=O)CCC/C=C\C[C@@H]1[C@@H](CC[C@@H](O)CCc2ccccc2)[C@H](O)C[C@@H]1O` [Latanoprost] stands 89%; under `COc1cc(C)c(/C=C/C(C)=C/C=C/C(C)=C/C(=O)O)c(C)c1C` [Acitretin], 99%; under `Nc1ccc(S(=O)(=O)Nc2ccc(Cl)nn2)cc1` [Sulfachloropyridazine], 68%.
With `COc1cc2nc(N3CCN(C(=O)C4CCCO4)CC3)nc(N)c2cc1OC` (centres undefined) [Terazosin hydrochloride] the figure was 103%.

These data come from the supplement of paper PMC7580552.
